The record followed here is paper PMC9911399, “Two distinct binding modes provide the RNA-binding protein RbFox with extraordinary sequence specificity”.

Where a chain is given by its changes, count along the chain named. Some of the results follow.

T1: RBFOX1 RRM RbFoxmut (Fox-RRM*) (Homo sapiens, UniProt Q9NWB1 109-208, R118D;E147R;N151S;E152T)
T1 sequence: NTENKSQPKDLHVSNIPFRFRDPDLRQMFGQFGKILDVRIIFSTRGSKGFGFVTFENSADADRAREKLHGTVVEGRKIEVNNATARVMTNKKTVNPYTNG

B1: GCGACGU (DNA:RNA)
RNA: GGGAGACCGGAAUUCAGAUUGUCCGCGACGUUUAAAUCCCGUCGUAGCCACCA
DNA 1: CAATCTGAATTCCGGTCTCCC
DNA 2: TGGTGGCTACGACGGGATT
B2: CACAGUC (DNA:RNA)
RNA: B1 RNA with G25C, C26A, G27C, C29G, G30U, U31C
DNA 1: CAATCTGAATTCCGGTCTCCC
DNA 2: TGGTGGCTACGACGGGATT
B3: UGUGAAU (DNA:RNA)
RNA: B1 RNA with G25U, C26G, G27U, A28G, C29A, G30A
DNA 1: CAATCTGAATTCCGGTCTCCC
DNA 2: TGGTGGCTACGACGGGATT
B4: AAGGCGU (DNA:RNA)
RNA: B1 RNA with G25A, C26A, A28G
DNA 1: CAATCTGAATTCCGGTCTCCC
DNA 2: TGGTGGCTACGACGGGATT
B5: GGCAAUU (DNA:RNA)
RNA: B1 RNA with C26G, G27C, C29A, G30U
DNA 1: CAATCTGAATTCCGGTCTCCC
DNA 2: TGGTGGCTACGACGGGATT
B6: GUGCCGA (DNA:RNA)
RNA: B1 RNA with C26U, A28C, U31A
DNA 1: CAATCTGAATTCCGGTCTCCC
DNA 2: TGGTGGCTACGACGGGATT
B7: GGAGAUC (DNA:RNA)
RNA: B1 RNA with C26G, G27A, A28G, C29A, G30U, U31C
DNA 1: CAATCTGAATTCCGGTCTCCC
DNA 2: TGGTGGCTACGACGGGATT
B8: GUGCUGU (DNA:RNA)
RNA: B1 RNA with C26U, A28C, C29U
DNA 1: CAATCTGAATTCCGGTCTCCC
DNA 2: TGGTGGCTACGACGGGATT
B9: GCUGGUC (DNA:RNA)
RNA: B1 RNA with G27U, A28G, C29G, G30U, U31C
DNA 1: CAATCTGAATTCCGGTCTCCC
DNA 2: TGGTGGCTACGACGGGATT
B10: CUAUUAG (DNA:RNA)
RNA: GGGAGACCGGAAUUCAGAUUGUCCCUAUUAGUUAAAUCCCGUCGUAGCCACCA
DNA 1: CAATCTGAATTCCGGTCTCCC
DNA 2: TGGTGGCTACGACGGGATT
B11: CUUGCGU (DNA:RNA)
RNA: B1 RNA with G25C, C26U, G27U, A28G
DNA 1: CAATCTGAATTCCGGTCTCCC
DNA 2: TGGTGGCTACGACGGGATT
B12: UGCCGCA (DNA:RNA)
RNA: GGGAGACCGGAAUUCAGAUUGUCCUGCCGCAUUAAAUCCCGUCGUAGCCACCA
DNA 1: CAATCTGAATTCCGGTCTCCC
DNA 2: TGGTGGCTACGACGGGATT
B13: CUCACGG (DNA:RNA)
RNA: B10 RNA with A27C, U28A, U29C, A30G
DNA 1: CAATCTGAATTCCGGTCTCCC
DNA 2: TGGTGGCTACGACGGGATT
B14: AUGGAAU (DNA:RNA)
RNA: B10 RNA with C25A, A27G, U28G, U29A, G31U
DNA 1: CAATCTGAATTCCGGTCTCCC
DNA 2: TGGTGGCTACGACGGGATT
B15: GGAUCCG (DNA:RNA)
RNA: B10 RNA with C25G, U26G, U29C, A30C
DNA 1: CAATCTGAATTCCGGTCTCCC
DNA 2: TGGTGGCTACGACGGGATT
B16: UGACGAA (DNA:RNA)
RNA: B12 RNA with C27A, C30A
DNA 1: CAATCTGAATTCCGGTCTCCC
DNA 2: TGGTGGCTACGACGGGATT
B17: CGCGGAA (DNA:RNA)
RNA: B12 RNA with U25C, C28G, C30A
DNA 1: CAATCTGAATTCCGGTCTCCC
DNA 2: TGGTGGCTACGACGGGATT
B18: GGUAAGA (DNA:RNA)
RNA: B1 RNA with C26G, G27U, C29A, U31A
DNA 1: CAATCTGAATTCCGGTCTCCC
DNA 2: TGGTGGCTACGACGGGATT
B19: AAGAGCG (DNA:RNA)
RNA: B1 RNA with G25A, C26A, C29G, G30C, U31G
DNA 1: CAATCTGAATTCCGGTCTCCC
DNA 2: TGGTGGCTACGACGGGATT
B20: AGUCCUG (DNA:RNA)
RNA: B12 RNA with U25A, C27U, G29C, C30U, A31G
DNA 1: CAATCTGAATTCCGGTCTCCC
DNA 2: TGGTGGCTACGACGGGATT

The test addresses T1, RBFOX1 RRM RbFoxmut (Fox-RRM*). The experiment in a line: EMSA; HiTS-Eq, 1 nM pool, 10 min; buffer printed only for the single-RNA assays: 10 mM Tris pH 7.5, 150 mM NaCl, 3.4 mM EDTA, 0.001% NP-40, 30 C. As to conditions: tags: His6 N-terminal (pET28a); label: 5' 32P. In a few lines: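 Purified RbFox RRM (wild type or mutant) was equilibrated for 10 min in 50 µL with 1 nM of a 5′-radiolabelled pool of RNA with 7 randomized nucleotides, its flanks annealed to DNA oligonucleotides, across increasing protein concentrations. Free RNA was separated by 8% native PAGE, excised, reverse-transcribed, PCR-barcoded and sequenced on an Illumina HiSeq 2500. Relative association constants came from read-count changes of each variant against the control reaction, normalised to the cognate motif.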
Turning to B1, the binding signal was 0.115 KA relative to UGCAUGU. For the molecule B2, the binding signal was 0.0427 KA relative to UGCAUGU.

Take B3: the binding signal is 0.171 KA relative to UGCAUGU. For B4 the value was 0.105 KA relative to UGCAUGU; for B5, 0.0634 KA relative to UGCAUGU. Regarding B6, the binding signal is 0.0824 KA relative to UGCAUGU. In the case of B7 it was 0.155 KA relative to UGCAUGU; in that of B8, 0.164 KA relative to UGCAUGU.

With B9, the binding signal is 0.188 KA relative to UGCAUGU. With B10, the binding signal was 0.144 KA relative to UGCAUGU.

As for B11, the binding signal was 0.154 KA relative to UGCAUGU. Take B12: the binding signal was 0.139 KA relative to UGCAUGU. For B13 the value was 0.0897 KA relative to UGCAUGU; for B14, 0.149 KA relative to UGCAUGU; for B15, 0.153 KA relative to UGCAUGU. As to B16, the binding signal was 0.11 KA relative to UGCAUGU. With B17, the binding signal is 0.131 KA relative to UGCAUGU. Regarding B18, the binding signal was 0.0669 KA relative to UGCAUGU. For B19, the binding signal was 0.131 KA relative to UGCAUGU.

Regarding B20, the binding signal is 0.101 KA relative to UGCAUGU.
